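Compound exposure: 48 hours, 5 concentrations, 96-well plates. The concentration for 50% growth inhibition is given as GI50.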 A number of entries come with more than one value. They are shown here; other results are not. There may be further records. Values that stand side by side are repeats across runs, samples, wells, individuals or studies. Marks in square brackets tell the records apart. A, B and so on number the origins entry by entry.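 TGI: concentration producing complete growth inhibition.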
Assays:
Assay in all cases: NCI tumour cell line growth inhibition, 48 h
SF-268 CNS = test system: SF-268 CNS
COLO 205 colon = test system: COLO 205 colon
KM12 colon = test system: KM12 colon
CAKI-1 renal = test system: CAKI-1 renal
IGROV1 ovarian = test system: IGROV1 ovarian
HCC-2998 colon = test system: HCC-2998 colon
HS 578T breast = test system: HS 578T breast
A498 renal = test system: A498 renal
PC-3 prostate = test system: PC-3 prostate
MDA-N = test system: MDA-N
ACHN renal = test system: ACHN renal
SK-MEL-28 melanoma = test system: SK-MEL-28 melanoma
NCI-H226 lung = test system: NCI-H226 lung
OVCAR-5 ovarian = test system: OVCAR-5 ovarian
DU-145 prostate = test system: DU-145 prostate
RXF 393 renal = test system: RXF 393 renal
NCI-H522 lung = test system: NCI-H522 lung
NCI-H460 lung = test system: NCI-H460 lung
SK-MEL-5 melanoma = test system: SK-MEL-5 melanoma
UACC-257 melanoma = test system: UACC-257 melanoma
SF-539 CNS = test system: SF-539 CNS
SN12C renal = test system: SN12C renal
SF-295 CNS = test system: SF-295 CNS
HT29 colon = test system: HT29 colon
HOP-62 NSCLC = test system: HOP-62 NSCLC
OVCAR-3 ovarian = test system: OVCAR-3 ovarian
U251 CNS = test system: U251 CNS
SNB-75 CNS = test system: SNB-75 CNS
EKVX NSCLC = test system: EKVX NSCLC
A549 NSCLC = test system: A549 NSCLC
SK-OV-3 ovarian = test system: SK-OV-3 ovarian
UACC-62 melanoma = test system: UACC-62 melanoma
786-0 renal = test system: 786-0 renal
BT-549 breast = test system: BT-549 breast
M14 melanoma = test system: M14 melanoma
NCI-H23 lung = test system: NCI-H23 lung
MDA-MB-435 = test system: MDA-MB-435
MDA-MB-231 breast = test system: MDA-MB-231 breast

## CC(C)c1cc(C(=O)N2Cc3ccc(CN4CCN(C)CC4)cc3C2)c(O)cc1O
SF-268 CNS
  GI50: 216 nM [sample A, mean of 2 tests] and 3.51 µM [sample B, mean of 2 tests]
COLO 205 colon
  TGI: 13.3 µM [sample A, mean of 2 tests] and 921 nM [sample B, mean of 2 tests]
KM12 colon
  TGI: 180 nM [sample A, mean of 2 tests] and 2.21 µM [sample B, mean of 2 tests]
CAKI-1 renal
  TGI: 2.05 µM [sample A, mean of 2 tests] and 23.9 µM [sample B, mean of 2 tests]
IGROV1 ovarian
  GI50: 31.9 nM [sample A, mean of 2 tests] and 330 nM [sample B, mean of 2 tests]
  TGI: 1.49 µM [sample A, mean of 2 tests] and 16.5 µM [sample B, mean of 2 tests]
HCC-2998 colon
  TGI: 881 nM [sample A, mean of 2 tests] and 14.6 µM [sample B, mean of 2 tests]

## CC(=O)OCC1OC(Sc2nc(-c3ccc(Cl)cc3)c(C#N)c(=O)n2C2OC(COC(C)=O)C(OC(C)=O)C(OC(C)=O)C2OC(C)=O)C(OC(C)=O)C(OC(C)=O)C1OC(C)=O (stereo not given)
HS 578T breast
  GI50: > 100 µM [sample A, 1 test] and 3.14 µM [sample B, 1 test]
A498 renal
  GI50: > 100 µM [sample A, 1 test] and 1.95 µM [sample B, 1 test]
  TGI: > 100 µM [sample A, 1 test] and 4.26 µM [sample B, 1 test]
SF-268 CNS
  GI50: > 100 µM [sample A, 1 test] and 2.25 µM [sample B, mean of 2 tests]
  TGI: > 100 µM [sample A, 1 test] and 7.9 µM [sample B, mean of 2 tests]
PC-3 prostate
  GI50: > 100 µM [sample A, 1 test] and 3.48 µM [sample B, 1 test]
MDA-N
  GI50: > 100 µM [sample A, 1 test] and 3.75 µM [sample B, mean of 2 tests]
ACHN renal
  TGI: > 100 µM [sample A, 1 test] and 7.36 µM [sample B, mean of 2 tests]
SK-MEL-28 melanoma
  TGI: > 100 µM [sample A, 1 test] and 6.13 µM [sample B, mean of 2 tests]
NCI-H226 lung
  GI50: > 100 µM [sample A, 1 test] and 3.2 µM [sample B, mean of 2 tests]
OVCAR-5 ovarian
  GI50: > 100 µM [sample A, 1 test] and 4.9 µM [sample B, mean of 2 tests]
DU-145 prostate
  GI50: > 100 µM [sample A, 1 test] and 4.04 µM [sample B, mean of 2 tests]
RXF 393 renal
  GI50: > 100 µM [sample A, 1 test] and 2.57 µM [sample B, mean of 2 tests]
  TGI: > 100 µM [sample A, 1 test] and 8.92 µM [sample B, mean of 2 tests]
NCI-H522 lung
  TGI: 78.1 µM [sample A, 1 test] and 4.29 µM [sample B, 1 test]
NCI-H460 lung
  GI50: > 100 µM [sample A, 1 test] and 765 nM [sample B, mean of 2 tests]
  TGI: > 100 µM [sample A, 1 test] and 2.19 µM [sample B, mean of 2 tests]
SK-MEL-5 melanoma
  GI50: > 100 µM [sample A, 1 test] and 3.43 µM [sample B, 1 test]
UACC-257 melanoma
  GI50: > 100 µM [sample A, 1 test] and 3.83 µM [sample B, mean of 2 tests]
SF-539 CNS
  GI50: > 100 µM [sample A, 1 test] and 1.58 µM [sample B, 1 test]
  TGI: > 100 µM [sample A, 1 test] and 3.35 µM [sample B, 1 test]
SN12C renal
  GI50: > 100 µM [sample A, 1 test] and 2.36 µM [sample B, 1 test]
  TGI: > 100 µM [sample A, 1 test] and 5.3 µM [sample B, 1 test]
SF-295 CNS
  GI50: > 100 µM [sample A, 1 test] and 2.03 µM [sample B, mean of 2 tests]
  TGI: > 100 µM [sample A, 1 test] and 4.64 µM [sample B, mean of 2 tests]
HT29 colon
  TGI: > 100 µM [sample A, 1 test] and 3.12 µM [sample B, 1 test]
HOP-62 NSCLC
  GI50: > 100 µM [sample A, 1 test] and 3.57 µM [sample B, 1 test]
OVCAR-3 ovarian
  GI50: > 100 µM [sample A, 1 test] and 4.85 µM [sample B, 1 test]
U251 CNS
  GI50: > 100 µM [sample A, 1 test] and 2.5 µM [sample B, 1 test]
SNB-75 CNS
  GI50: > 100 µM [sample A, 1 test] and 2.48 µM [sample B, mean of 2 tests]
  TGI: > 100 µM [sample A, 1 test] and 9.51 µM [sample B, mean of 2 tests]
EKVX NSCLC
  GI50: > 100 µM [sample A, 1 test] and 4.5 µM [sample B, mean of 2 tests]
A549 NSCLC
  GI50: > 100 µM [sample A, 1 test] and 3.44 µM [sample B, 1 test]
SK-OV-3 ovarian
  GI50: > 100 µM [sample A, 1 test] and 3.21 µM [sample B, mean of 2 tests]
UACC-62 melanoma
  GI50: > 100 µM [sample A, 1 test] and 1.95 µM [sample B, mean of 2 tests]
  TGI: > 100 µM [sample A, 1 test] and 4.66 µM [sample B, mean of 2 tests]
786-0 renal
  GI50: > 100 µM [sample A, 1 test] and 1.81 µM [sample B, mean of 2 tests]
  TGI: > 100 µM [sample A, 1 test] and 4.19 µM [sample B, mean of 2 tests]
BT-549 breast
  TGI: > 100 µM [sample A, 1 test] and 8.91 µM [sample B, mean of 2 tests]
M14 melanoma
  GI50: > 100 µM [sample A, 1 test] and 2.72 µM [sample B, mean of 2 tests]
NCI-H23 lung
  GI50: > 100 µM [sample A, 1 test] and 6.08 µM [sample B, mean of 2 tests]
KM12 colon
  GI50: > 100 µM [sample A, 1 test] and 4.09 µM [sample B, mean of 2 tests]
CAKI-1 renal
  TGI: > 100 µM [sample A, 1 test] and 5.78 µM [sample B, mean of 2 tests]
MDA-MB-435
  GI50: > 100 µM [sample A, 1 test] and 6.55 µM [sample B, mean of 2 tests]
MDA-MB-231 breast
  GI50: > 100 µM [sample A, 1 test] and 2.02 µM [sample B, mean of 2 tests]
  TGI: > 100 µM [sample A, 1 test] and 9.04 µM [sample B, mean of 2 tests]
IGROV1 ovarian
  GI50: > 100 µM [sample A, 1 test] and 8.47 µM [sample B, mean of 2 tests]
HCC-2998 colon
  TGI: > 100 µM [sample A, 1 test] and 2.17 µM [sample B, mean of 2 tests]

Source: PubChem BioAssay (NCI)
